Test results: publication PMC12136788
Numbering of substitutions follows the chain as printed. The list shows a part of the results.

B1: chr14:66974463:66974464:+_ENSMUSG00000022044_ENSMUST00000074523|mus_hu|mus_mus_mus_hu_False|8_28 (ssRNA)
RNA: GGGAGUUCUACAGUCCGACGAUCUUGUAGGACGACUUAUUCAGGGGAUCGGCCAGGAAGCAGGAGCAGAACAAGGACACCAGCGGGAGCUCCUUCAUCUUCUCUUUAUAGGCUGCAAGGGUCAUGUUGGCUGGAAUUGGUGGCCAACAGAGGAUUGAGCAUCA
B2: chr9:95013113:95013114:-_ENSG00000196305_ENST00000443024|hu_hu|hu_hu_hu_mus_False|58_88 (ssRNA)
RNA: GGGAGUUCUACAGUCCGACGAUCCUCAGUCAGAAAGGGCGUGUAAGGAGCCAUAAGUCUGCACAGAGAAAGCAGGACACUAAACAAUGUCUCCAGAGCCAUGACACAGUCUUCCACCCCACUCUCACCCUUUAACCUCCUCCUCAACAGAGGAUUGAGCAUCA
B3: chr9:95040541:95040542:-_ENSG00000196305_ENST00000443024|hu_hu|FALSE|FALSE (ssRNA)
RNA: GGGAGUUCUACAGUCCGACGAUCAAGGAUCUCAUAGUCACUCUCCAAUUUAUAGAGGGCUGACAAUCUGGCUUCCAUUAAAAUGAGUAAUCGUCCUCUGGCAACAUCUUUAAUUUUCACAUAUUGCAUUUCUGGAUUAACACACAACAGAGGAUUGAGCAUCA
B4: chr8:104447970:104447971:+_ENSG00000164934_ENST00000297579|hu_hu|hu_hu_hu_mus_False|58_88 (ssRNA)
RNA: GGGAGUUCUACAGUCCGACGAUCAUACACUUCCCUGCUUCGGCUCUUGUCUACAGGAAAGAUUCUAAUAGACUUAUCGAAACUAGCAGACACAAAUUCCUUCCCAGUGGGAGAGUAGUCCACAUCAAGUACUGCAGACACGUGCAACAGAGGAUUGAGCAUCA
B5: chr4:95690885:95690886:+_ENSMUSG00000028572_ENSMUST00000156910|mus_mus|mus_mus_mus_hu_False|68_68 (ssRNA)
RNA: GGGAGUUCUACAGUCCGACGAUCUUUAGAAAAUGUUAAAUACCAUGCUAAAAUAUUUUCAAAGGCUAGUCUUAUUUUACCAGAAGUCACAGGCAAGCAGACACUACAAGAAUAUAUGAAAAUGAAACUCAACAAUAUAACUGUCAACAGAGGAUUGAGCAUCA
B6: chr8:104447970:104447971:+_ENSG00000164934_ENST00000297579|hu_hu|hu_hu_hu_mus_False|58_68 (ssRNA)
RNA: B4 RNA with U51C, C72U
B7: chr6:89793807:89793808:+_ENSG00000146278_ENST00000336032|hu_hu|FALSE|FALSE (ssRNA)
RNA: GGGAGUUCUACAGUCCGACGAUCGCUUCCCAUCCAGUGACUAGGAGGCUUUGGAAGAACACUAGGAGAAGGUGGAUCACUAAACUUUGCCCCAGCAUAAUUUUCCUUUUGGCUCACUUCAGUUAGAAAUGCUGAUUUCUUCAACAACAGAGGAUUGAGCAUCA
B8: 48061950_48063070_790_CDS_ENSG00000138081_ENST00000403359|human|control|control (ssRNA)
RNA: GGGAGUUCUACAGUCCGACGAUCUCUUGCAGGGUUACUGUAGAAAUGUUCAGCAAAUCCUGGCUUUACAUGUGCACCUUUAUACAACUGCUGGAAACUCUCUUUCCAGGGAUUUGGAUGUUCAUACUCUUCUGGAUUAAUCUGCAACAGAGGAUUGAGCAUCA
B9: 153061612_153061732_387_CDS_ENSMUSG00000051413_ENSMUST00000056924|mouse|control|control (ssRNA)
RNA: GGGAGUUCUACAGUCCGACGAUCGGGAAGGCUGUGAGGCCUUAGCUUCUCCCCAUUUGAAAAUGGUGUCCCCGAGAUUUCACAUUGGCACUUCACUUGACUCUCUGCCUCCCGGCCCCGAGGCCUGGGAACUAGUUUCCAGCCCAACAGAGGAUUGAGCAUCA
B10: chr17:25041749:25041750:-_ENSMUSG00000024163_ENSMUST00000117509|mus_mus|FALSE|FALSE (ssRNA)
RNA: GGGAGUUCUACAGUCCGACGAUCAGAUGGGUAGGAUCGUUUGGCCGGAGGGGGGCUAGAUGAGGAGCUGAAGAGGCGACUAAAGAACUGCCAGAUGGUGGACUUCUUCUUCUCCUGGACAGAUGGGUGUUCCCUUGAUGCUCUCAACAGAGGAUUGAGCAUCA
B11: chr1:163117127:163117128:-_ENSG00000143248_ENST00000313961|hu_mus|hu_hu_hu_mus_False|58_68 (ssRNA)
RNA: GGGAGUUCUACAGUCCGACGAUCUGCUACAAAGGAUGUAACUCAACUCACAGGGCAACUUUUGGAAGCCUGGCUAAAUUACUACUUGAUUAGCUCCUUAUAAAAUUCAGAGCGCACAAAGCGGGGCAGAGAAUCCUUCUCCAUCAACAGAGGAUUGAGCAUCA
B12: 73052251_73060362_2799_CDS_ENSMUSG00000022607_ENSMUST00000110036|mouse|control|control (ssRNA)
RNA: GGGAGUUCUACAGUCCGACGAUCCCCGUCUUCCCUGUCGAUGCUGCCUCGAGAGAGCCUCACAUCAGGUUUCAGGAAUCGCUCUUCCUUCUCCAGCCAGCGCUGGUCUUCUUCCAUUUCCUGCUGCUGUCGGAUUAGCCGCUCCAACAGAGGAUUGAGCAUCA
B13: chr8:104447970:104447971:+_ENSG00000164934_ENST00000297579|hu_hu|hu_hu_hu_mus_False|48_88 (ssRNA)
RNA: B4 RNA with G78A, A81G, A84G, U96C
B14: chr7:108143013:108143014:-_ENSG00000135241_ENST00000257694|hu_hu|motif|central (ssRNA)
RNA: GGGAGUUCUACAGUCCGACGAUCGAGAAUUCGGAUUCCUCUCCCUUUCACUGGAUCCACAUAGCCAAUUAGGGCCAAAAUUUCUCGGACUGCAGCCUGAAGAGUUUCAUCCUUAAUUUGUCUCAGUCGUAAUAAAUAUGGAAUCAACAGAGGAUUGAGCAUCA
B15: chr7:149838571:149838572:-_ENSMUSG00000048583_ENSMUST00000000033|mus_hu|FALSE|FALSE (ssRNA)
RNA: GGGAGUUCUACAGUCCGACGAUCAUGUCUGCUCAGCUACCGCCAUCUCCAAUGUGGCCAAACUCCUUCCUCACUCUGGCUGGGCCAACACACAGUAAGUAAGGUGUAUCGGGAAUGGGUGGGGUAUGGGGAGCAUCGUGGCUCCAACAGAGGAUUGAGCAUCA
B16: 29316970_29322583_805_CDS_ENSMUSG00000029767_ENSMUST00000031779|mouse|control|control (ssRNA)
RNA: GGGAGUUCUACAGUCCGACGAUCUUCCUUGUCCAUCUUCCCAUCCCGGUUCUUAUCUCGAAACUCCACGAACUGUUCUCGCUCUGUCUUCACCCACUCUGGCUCAUCAGCAUUCCCAUCAUGACUGUACAUGUCACCAAUGUACAACAGAGGAUUGAGCAUCA
B17: 34926277_34926397_4828_CDS_ENSG00000159140_ENST00000381679|human|control|control (ssRNA)
RNA: GGGAGUUCUACAGUCCGACGAUCGAGAGUAGAUGCUGUGGUAAAUUCAAUACCCUUACUAGUUCCUGUUGCAUCAGGUUCCAGAGCAAAAGGACCAGUAGAAGAUAGAGUUUCUCCUGCAUCAGCUUCACUAACACCAGGGUACAACAGAGGAUUGAGCAUCA
B18: chr17:57763070:57763071:+_ENSG00000141367_ENST00000269122|hu_hu|FALSE|FALSE (ssRNA)
RNA: GGGAGUUCUACAGUCCGACGAUCGGCAAAAUCCAUGAUAUUGUGCCUCCAUGCAGUUUCUAGGACGACAUCUGGCCUUAAAAGAUCGUAACAGGUAAACAGACAAGCUCCAAAGCACUCUCUUUUUUCUUCCUGCAAAAACCACAACAGAGGAUUGAGCAUCA
B19: chr19:38862730:38862731:-_ENSMUSG00000024999_ENSMUST00000025963|mus_mus|motif|central (ssRNA)
RNA: GGGAGUUCUACAGUCCGACGAUCUUUGUAAGUCAUUUCUACAAUGAUAAUAGCUAUUAUAUAAAAUAGUUCUUUAUAACGGUUUAUAAACAUAUACAGUUUUUAUCUGUAAGAAUUUAAGGUGGGCGGUGGUGGCGCACGUCUCAACAGAGGAUUGAGCAUCA
B20: chr3:132387698:132387699:+_ENSG00000081307_ENST00000264991|hu_hu|FALSE|FALSE (ssRNA)
RNA: GGGAGUUCUACAGUCCGACGAUCUUGAACUUUACUUAAUCCUGCUUGAUGAGGUUGGAAGAAAAGUCUAUUCAUAUUGGCUAGUUCCACCUUGUCAUAAUCAAAGAGUAGCAACUUACCAAUGCCACAUCUUGUCAGCAUUUCCAACAGAGGAUUGAGCAUCA
B21: chr4:25749455:25749456:-_ENSG00000091490_ENST00000264868|hu_hu|hu_hu_hu_mus_False|8_48 (ssRNA)
RNA: GGGAGUUCUACAGUCCGACGAUCGCACUAUGACCUCUAGAAAAAUCCACAGGGGGAAAAAAUGUAAACCAAUGUACAAUGUUAUCGCCCUCCCUGCGUGUGGAGUGUUUGUCUCAAGGCUCCUUCUUGCCUUAUAAUUUGGGACAACAGAGGAUUGAGCAUCA
B22: chr1:247070963:247070964:-_ENSG00000153207_ENST00000391829|hu_mus|FALSE|FALSE (ssRNA)
RNA: GGGAGUUCUACAGUCCGACGAUCCUGAUUUGUCCUGUUGAUGUAACUCAGAGUAGAAAUGGCUACUCCCAAUGGGCUUACUAACUGGAAGCACAGGUGGCGCCCCUCUCUCAUCACUCUCUCUCUGAUGUGUGGUACUUCAGCCAACAGAGGAUUGAGCAUCA

These binders were tested against T1, UNK ZnF1-3 (human, UniProt Q9C0B0 31-174) (assay: nsRBNS (natural sequence RNA bind-n-seq); RBNS binding buffer (assumed for nsRBNS): 25 mM Tris pH 7.5, 150 mM KCl, 3 mM MgCl2, 0.01% Triton X-100, 500 ug/ml BSA, 20 U/ml SUPERase-In, 4 C; UNK is unkempt and MSI1 is Musashi-1; names of the RNAs are library labels; protein concentration not given here; high values mean tight binding).
T1 sequence: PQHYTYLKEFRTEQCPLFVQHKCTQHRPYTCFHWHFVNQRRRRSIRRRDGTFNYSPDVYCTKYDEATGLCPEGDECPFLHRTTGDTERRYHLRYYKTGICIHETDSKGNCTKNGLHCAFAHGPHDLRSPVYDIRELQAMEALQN

Binder	binding signal [enrichment R]
B1	2.11
B2	1.72
B3	0.907
B4	0.839
B5	1.46
B6	0.866
B7	1.01
B8	0.457
B9	0.909
B10	1.25
B11	1.13
B12	0.592
B13	0.907
B14	0.764
B15	0.993
B16	0.688
B17	0.792
B18	1.14
B19	1.49
B20	0.799
B21	0.814
B22	1.05
